The text below walks through data of publication PMC6662825.

Results are given in words; binding and its absence hold for the method and conditions named. For part of these data: In cells and extracts the contact can be indirect. Some entries that bind do so weakly or less than the wild type. Sequences can lack the tags named with a protein.

For assay [1], the target named is T1, GST-MTR4-∆N∆arch (human) (UniProt P42285).
T1 sequence: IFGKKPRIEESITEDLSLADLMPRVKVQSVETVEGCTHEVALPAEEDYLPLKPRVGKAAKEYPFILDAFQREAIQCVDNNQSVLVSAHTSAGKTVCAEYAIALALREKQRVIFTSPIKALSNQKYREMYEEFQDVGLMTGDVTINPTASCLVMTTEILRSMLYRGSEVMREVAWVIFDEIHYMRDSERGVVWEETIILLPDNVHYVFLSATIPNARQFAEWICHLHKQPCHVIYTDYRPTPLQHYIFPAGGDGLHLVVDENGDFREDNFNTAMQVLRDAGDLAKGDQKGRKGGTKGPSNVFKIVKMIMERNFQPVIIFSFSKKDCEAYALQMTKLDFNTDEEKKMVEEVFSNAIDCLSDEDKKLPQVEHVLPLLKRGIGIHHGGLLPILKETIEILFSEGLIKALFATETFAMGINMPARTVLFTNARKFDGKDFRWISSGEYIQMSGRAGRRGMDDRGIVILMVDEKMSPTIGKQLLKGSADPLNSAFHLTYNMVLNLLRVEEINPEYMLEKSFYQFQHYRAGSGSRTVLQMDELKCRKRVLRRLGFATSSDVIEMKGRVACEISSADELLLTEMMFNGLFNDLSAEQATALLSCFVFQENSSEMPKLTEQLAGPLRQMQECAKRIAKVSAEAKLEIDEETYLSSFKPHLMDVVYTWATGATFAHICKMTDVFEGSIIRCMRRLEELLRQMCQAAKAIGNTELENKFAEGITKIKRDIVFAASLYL
In words: condition: 20 μM Trx-NVL constructs (methods, told for 10 μM GST-MTR4∆N); pull-down; GST-tagged MTR4 constructs as bait, Trx-NVL constructs as prey, glutathione sepharose; 10 μM GST-MTR4∆N with 20 μM Trx-NVL constructs; 50 mM Hepes pH 7.5, 150 mM NaCl, 5% glycerol, 0.05% NP40, 1 mM DTT, 30 min at 4 °C; SDS-PAGE, Coomassie; both purified.

Assay [2] deals with T1, GST-MTR4-∆N∆arch (human). As to the kind of experiment: condition: 8 μM MBP-ZCCHC8 constructs (methods, told for 2 μM GST-MTR4∆N); pull-down; GST-tagged MTR4 constructs as bait, MBP-ZCCHC8 constructs as prey, glutathione sepharose; 2 μM GST-MTR4∆N with 8 μM MBP-ZCCHC8 constructs; 50 mM Hepes pH 7.5, 150 mM NaCl, 5% glycerol, 0.05% NP40, 1 mM DTT, 30 min at 4 °C; SDS-PAGE, Coomassie; both purified.

Another assay has as its target T2, MTR4-LAP (human) (UniProt P42285).
T2 sequence: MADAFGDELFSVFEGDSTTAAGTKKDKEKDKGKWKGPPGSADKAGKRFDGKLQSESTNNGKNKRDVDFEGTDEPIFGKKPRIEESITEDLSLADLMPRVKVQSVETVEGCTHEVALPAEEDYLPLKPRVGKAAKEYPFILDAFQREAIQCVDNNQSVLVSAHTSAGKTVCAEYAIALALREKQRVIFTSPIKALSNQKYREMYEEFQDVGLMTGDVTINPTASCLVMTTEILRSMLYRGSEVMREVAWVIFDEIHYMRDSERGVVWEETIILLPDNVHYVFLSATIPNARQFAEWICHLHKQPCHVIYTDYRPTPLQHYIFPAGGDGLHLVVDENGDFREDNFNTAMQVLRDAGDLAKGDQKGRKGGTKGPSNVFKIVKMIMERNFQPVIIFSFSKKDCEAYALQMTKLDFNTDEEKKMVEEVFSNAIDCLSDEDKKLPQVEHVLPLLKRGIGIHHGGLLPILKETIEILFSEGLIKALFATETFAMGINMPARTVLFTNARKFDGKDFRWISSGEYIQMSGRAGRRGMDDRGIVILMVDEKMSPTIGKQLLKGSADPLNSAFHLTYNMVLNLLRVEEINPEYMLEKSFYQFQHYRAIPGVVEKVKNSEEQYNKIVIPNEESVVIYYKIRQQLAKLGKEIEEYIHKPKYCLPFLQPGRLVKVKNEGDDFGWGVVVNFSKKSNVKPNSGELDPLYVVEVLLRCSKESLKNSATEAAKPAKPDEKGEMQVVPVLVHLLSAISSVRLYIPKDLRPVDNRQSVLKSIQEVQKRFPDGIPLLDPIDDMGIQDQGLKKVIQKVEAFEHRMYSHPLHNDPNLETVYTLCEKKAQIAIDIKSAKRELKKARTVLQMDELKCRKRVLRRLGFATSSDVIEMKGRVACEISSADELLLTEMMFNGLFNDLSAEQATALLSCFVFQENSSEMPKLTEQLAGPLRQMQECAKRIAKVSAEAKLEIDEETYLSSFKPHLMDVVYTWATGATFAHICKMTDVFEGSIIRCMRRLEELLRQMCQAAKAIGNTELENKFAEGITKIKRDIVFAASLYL
In words: co-IP; HeLa Kyoto cells stably expressing MTR4-LAP or RBM7-LAP, transiently transfected with FLAG-tagged NVL or ZCCHC8 constructs; lysate on beads with a llama anti-GFP antibody; 150 mM NaCl, 20 mM HEPES pH 7.4, 0.5% Triton X-100; Benzonase treatment on beads; western blot. (In general: In western blotting, separated proteins are transferred to a membrane and probed.)

B1: Trx-NVL^1–266 (domain or fragment, UniProt O15381 1-266)
chain: MKPRPAGFVDNKLKQRVIQYLTSNKCGKYVDIGVLASDLQRVYSIDYGRRKRNAFRIQVEKVFSIISSEKELKNLTELEDEHLAKRARQGEEDNEYTESYSDDDSSMEDYPDPQSANHMNSSLLSLYRKGNPDSVSNTPEMEQRETTSSTPRISSKTGSIPLKTPAKDSEGGWFIDKTPSVKKDSFFLDLSCEKSNPKKPITEIQDSKDSSLLESDMKRKGKLKNKGSKRKKEDLQEVDGEIEAVLQKKAKARGLEFQISNVKFED
As to B1, in the assay with GST-MTR4-∆N∆arch (human) [1], the binding result is recorded as “no binding”.

B2: MBP-ZCCHC8^91–211 (domain or fragment, UniProt Q6NZY4 91-211)
chain: DGPILQILFMNNAISKQYHQEIEEFVSNLVKRFEEQQKNDVEKTSFNLLPQPSSIVLEEDHKVEESCAIKNNKEAFSVVGSVLYFTNFCLDKLGQPLLNENPQLSEGWEIPKYHQVFSHIV
Turning to B2, in the assay with GST-MTR4-∆N∆arch (human) [2], the binding result is “no binding”.

B3: FLAG-tagged full-length ZCCHC8, wild type (protein, UniProt Q6NZY4 1-707)
chain: MAAEVYFGDLELFEPFDHPEESIPKPVHTRFKDDDGDEEDENGVGDAELRERLRQCEETIEQLRAENQELKRKLNILTRPSGILVNDTKLDGPILQILFMNNAISKQYHQEIEEFVSNLVKRFEEQQKNDVEKTSFNLLPQPSSIVLEEDHKVEESCAIKNNKEAFSVVGSVLYFTNFCLDKLGQPLLNENPQLSEGWEIPKYHQVFSHIVSLEGQEIQVKAKRPKPHCFNCGSEEHQMKDCPMPRNAARISEKRKEYMDACGEANNQNFQQRYHAEEVEERFGRFKPGVISEELQDALGVTDKSLPPFIYRMRQLGYPPGWLKEAELENSGLALYDGKDGTDGETEVGEIQQNKSVTYDLSKLVNYPGFNISTPRGIPDEWRIFGSIPMQACQQKDVFANYLTSNFQAPGVKSGNKRSSSHSSPGSPKKQKNESNSAGSPADMELDSDMEVPHGSQSSESFQFQPPLPPDTPPLPRGTPPPVFTPPLPKGTPPLTPSDSPQTRTASGAVDEDALTLEELEEQQRRIWAALEQAESVNSDSDVPVDTPLTGNSVASSPCPNELDLPVPEGKTSEKQTLDEPEVPEIFTKKSEAGHASSPDSEVTSLCQKEKAELAPVNTEGALLDNGSVVPNCDISNGGSQKLFPADTSPSTATKIHSPIPDMSKFATGITPFEFENMAESTGMYLRIRSLLKNSPRNQQKNKKASE
Take B3: the binding entry with MTR4-LAP (human) is on record as “binds”.

B4: FLAG-tagged full-length ZCCHC8 I112R/F115R (protein, UniProt Q6NZY4 1-707)
chain: MAAEVYFGDLELFEPFDHPEESIPKPVHTRFKDDDGDEEDENGVGDAELRERLRQCEETIEQLRAENQELKRKLNILTRPSGILVNDTKLDGPILQILFMNNAISKQYHQEREERVSNLVKRFEEQQKNDVEKTSFNLLPQPSSIVLEEDHKVEESCAIKNNKEAFSVVGSVLYFTNFCLDKLGQPLLNENPQLSEGWEIPKYHQVFSHIVSLEGQEIQVKAKRPKPHCFNCGSEEHQMKDCPMPRNAARISEKRKEYMDACGEANNQNFQQRYHAEEVEERFGRFKPGVISEELQDALGVTDKSLPPFIYRMRQLGYPPGWLKEAELENSGLALYDGKDGTDGETEVGEIQQNKSVTYDLSKLVNYPGFNISTPRGIPDEWRIFGSIPMQACQQKDVFANYLTSNFQAPGVKSGNKRSSSHSSPGSPKKQKNESNSAGSPADMELDSDMEVPHGSQSSESFQFQPPLPPDTPPLPRGTPPPVFTPPLPKGTPPLTPSDSPQTRTASGAVDEDALTLEELEEQQRRIWAALEQAESVNSDSDVPVDTPLTGNSVASSPCPNELDLPVPEGKTSEKQTLDEPEVPEIFTKKSEAGHASSPDSEVTSLCQKEKAELAPVNTEGALLDNGSVVPNCDISNGGSQKLFPADTSPSTATKIHSPIPDMSKFATGITPFEFENMAESTGMYLRIRSLLKNSPRNQQKNKKASE
Consider B4, for which, in the assay with MTR4-LAP (human), the binding entry is given as “binds”.

B5: FLAG-tagged full-length NVL, wild type (protein, UniProt O15381 1-856)
chain: MKPRPAGFVDNKLKQRVIQYLTSNKCGKYVDIGVLASDLQRVYSIDYGRRKRNAFRIQVEKVFSIISSEKELKNLTELEDEHLAKRARQGEEDNEYTESYSDDDSSMEDYPDPQSANHMNSSLLSLYRKGNPDSVSNTPEMEQRETTSSTPRISSKTGSIPLKTPAKDSEGGWFIDKTPSVKKDSFFLDLSCEKSNPKKPITEIQDSKDSSLLESDMKRKGKLKNKGSKRKKEDLQEVDGEIEAVLQKKAKARGLEFQISNVKFEDVGGNDMTLKEVCKMLIHMRHPEVYHHLGVVPPRGVLLHGPPGCGKTLLAHAIAGELDLPILKVAAPEIVSGVSGESEQKLRELFEQAVSNAPCIIFIDEIDAITPKREVASKDMERRIVAQLLTCMDDLNNVAATARVLVIGATNRPDSLDPALRRAGRFDREICLGIPDEASRERILQTLCRKLRLPQAFDFCHLAHLTPGFVGADLMALCREAAMCAVNRVLMKLQEQQKKNPEMEDLPSKGVQEERLGTEPTSETQDELQRLLGLLRDQDPLSEEQMQGLCIELNDFIVALSSVQPSAKREGFVTVPNVTWADIGALEDIREELTMAILAPVRNPDQFKALGLVTPAGVLLAGPPGCGKTLLAKAVANESGLNFISVKGPELLNMYVGESERAVRQVFQRAKNSAPCVIFFDEVDALCPRRSDRETGASVRVVNQLLTEMDGLEARQQVFIMAATNRPDIIDPAILRPGRLDKTLFVGLPPPADRLAILKTITKNGTKPPLDADVNLEAIAGDLRCDCYTGADLSALVREASICALRQEMARQKSGNEKGELKVSHKHFEEAFKKVRSSISKKDQIMYERLQESLSR
With B5, the binding result with MTR4-LAP (human) is recorded as “binds”.

B6: Trx-NVL^167–216 (domain or fragment, UniProt O15381 167-216)
chain: KDSEGGWFIDKTPSVKKDSFFLDLSCEKSNPKKPITEIQDSKDSSLLESD
As to B6, the binding entry with GST-MTR4-∆N∆arch (human) [1] is on record as “no binding”.
